# Reference: the supplement of paper PMC4604168 (melanoma cell lines)
# This is one part of the list. Single values are uncertain, as repeats are few or missing.
# Test system: MZ2-MEL
# Assay: cell count relative to DMSO control; melanoma cells; higher = more viable cells
# Conditions: library dose: standard library concentration; 72 h
# 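Note: cells treated in 1,536-well plates, then fixed and DAPI-stained, with nuclei counted from automated high-throughput microscope images.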
row,SMILES,cell count
1,"COCC[n+]1c2c(n(Cc3cnccn3)c1C)C(=O)c1ccccc1C2=O + Cc1ccc(NC(=O)c2cccc(N(C)C)c2)cc1NC(=O)c1ccc(O)cc1 [ZM336372] (first compound 0.002 µM, partner dose 10 µM)",33.9%
2,"COCC[n+]1c2c(n(Cc3cnccn3)c1C)C(=O)c1ccccc1C2=O + CN(NC(=O)CC(=O)NN(C)C(=S)c1ccccc1)C(=S)c1ccccc1 [STA4783] (first compound 0.002 µM, partner dose 0.03 µM)",31.8%
3,"C#Cc1cccc(Nc2ncnc3cc(OCCOC)c(OCCOC)cc23)c1 [erlotinib] + Nc1cccc2c1CN(C1CCC(=O)NC1=O)C2=O [lenalidomide] (first compound 4 µM, partner dose 5 µM)",83.8%
4,"Nc1cccc2c1CN(C1CCC(=O)NC1=O)C2=O (stereo not drawn) [lenalidomide] + COC(=O)c1sccc1S(=O)(=O)Nc1ccc(Nc2ccccc2)cc1OC [GSK0660] (first compound 5 µM, partner dose 5 µM)",84.4%
5,"Nc1cccc2c1CN(C1CCC(=O)NC1=O)C2=O (stereo not drawn) [lenalidomide] + NC(=O)Nc1cc(-c2cccc(F)c2)sc1C(=O)N[C@H]1CCCNC1 [AZD7762] (first compound 5 µM, partner dose 0.1 µM)",112%
6,"COCC[n+]1c2c(n(Cc3cnccn3)c1C)C(=O)c1ccccc1C2=O + COc1ccc2c(c1)CCC1C2CCC2(C)C(NCCCCCCN3C(=O)C=CC3=O)CCC12 [U73122] (first compound 0.002 µM, partner dose 2 µM)",109%
7,"C#Cc1cccc(Nc2ncnc3cc(OCCOC)c(OCCOC)cc23)c1 [erlotinib] + COCC[n+]1c2c(n(Cc3cnccn3)c1C)C(=O)c1ccccc1C2=O [YM155] (first compound 4 µM, partner dose 0.002 µM)",14.1%
8,"Clc1ccc(Nc2nnc(Cc3ccncc3)c3ccccc23)cc1 [vatalanib] + CCc1ccc(CCOc2ccc(CC3SC(=O)NC3=O)cc2)nc1 [pioglitazone] (first compound 10 µM, partner dose 10 µM)",60.5%
9,"C#Cc1cccc(Nc2ncnc3cc(OCCOC)c(OCCOC)cc23)c1 [erlotinib] + CO[C@@H]1[C@H](N(C)C(=O)c2ccccc2)C[C@H]2O[C@]1(C)n1c3ccccc3c3c4c(c5c6ccccc6n2c5c31)C(=O)NC4 [Midostaurin] (first compound 4 µM, partner dose 0.4 µM)",72%

# Test system: MeWo
# Assay: as above
# Conditions: library dose: standard library concentration; 72 h
row,SMILES,cell count
1,"COCC[n+]1c2c(n(Cc3cnccn3)c1C)C(=O)c1ccccc1C2=O + CCc1ccc(CCOc2ccc(CC3SC(=O)NC3=O)cc2)nc1 [pioglitazone] (first compound 0.002 µM, partner dose 10 µM)",76.4%
2,"Clc1ccc(Nc2nnc(Cc3ccncc3)c3ccccc23)cc1 [vatalanib] + Oc1cc(-c2nc(-c3ccccc3)[nH]c2-c2ccncc2)ccc1Cl [L779450] (first compound 10 µM, partner dose 1 µM)",48%
3,"Clc1ccc(Nc2nnc(Cc3ccncc3)c3ccccc23)cc1 [vatalanib] + Cn1cc(/C=C2\C(=O)Nc3cccnc32)c2ccccc21 [GW441756] (first compound 10 µM, partner dose 2 µM)",60.6%
4,"Nc1cccc2c1CN(C1CCC(=O)NC1=O)C2=O (stereo not drawn) [lenalidomide] + O=S(=O)(c1ccccc1)N(CC(F)(F)F)c1ccc(C(O)(C(F)(F)F)C(F)(F)F)cc1 [T0901317] (first compound 5 µM, partner dose 7 µM)",93%
5,"Nc1cccc2c1CN(C1CCC(=O)NC1=O)C2=O (stereo not drawn) [lenalidomide] + CN(C)S(=O)(=O)c1ccc2c(c1)/C(=C/c1cc3c([nH]1)CCCC3)C(=O)N2 [SU6656] (first compound 5 µM, partner dose 2 µM)",78.3%
6,"C#Cc1cccc(Nc2ncnc3cc(OCCOC)c(OCCOC)cc23)c1 [erlotinib] + COc1cc(Nc2ncc(F)c(Nc3ccc4c(n3)NC(=O)C(C)(C)O4)n2)cc(OC)c1OC [Tamatinib] (first compound 4 µM, partner dose 2 µM)",78.5%
7,"Nc1cccc2c1CN(C1CCC(=O)NC1=O)C2=O (stereo not drawn) [lenalidomide] + CC(C)(C)c1cnc(CSc2cnc(NC(=O)C3CCNCC3)s2)o1 [SNS-032] (first compound 5 µM, partner dose 0.05 µM)",99.4%
8,"O=C(CCCCCCC(=O)Nc1ccccc1)NO [vorinostat] + CC(C)(C)c1cnc(CSc2cnc(NC(=O)C3CCNCC3)s2)o1 [SNS-032] (first compound 0.4 µM, partner dose 0.05 µM)",79%
9,"Clc1ccc(Nc2nnc(Cc3ccncc3)c3ccccc23)cc1 [vatalanib] + O=C(Nc1ccccc1)c1cc([N+](=O)[O-])ccc1Cl [GW9662] (first compound 10 µM, partner dose 10 µM)",35.6%
10,"COCC[n+]1c2c(n(Cc3cnccn3)c1C)C(=O)c1ccccc1C2=O + COc1cc(N2CCC(N3CCN(C)CC3)CC2)ccc1Nc1ncc(Cl)c(Nc2ccccc2S(=O)(=O)C(C)C)n1 [NVP-TAE684] (first compound 0.002 µM, partner dose 0.4 µM)",50.4%
11,"O=C(CCCCCCC(=O)Nc1ccccc1)NO [vorinostat] + COc1ccc(-c2ccc3c(N4CCOCC4)nc(N4C[C@@H](C)O[C@@H](C)C4)nc3n2)cc1CO [KU0063794] (first compound 0.4 µM, partner dose 0.1 µM)",80.1%
12,"Cn1c(Nc2ccc(C(F)(F)F)cc2)nc2cc(Oc3ccnc(-c4ncc(C(F)(F)F)[nH]4)c3)ccc21 + CN(C)S(=O)(=O)c1ccc2c(c1)/C(=C/c1cc3c([nH]1)CCCC3)C(=O)N2 [SU6656] (first compound 0.4 µM, partner dose 2 µM)",56.6%
13,"Clc1ccc(Nc2nnc(Cc3ccncc3)c3ccccc23)cc1 [vatalanib] + OCCn1cc(-c2cnc3nnn(Cc4ccc5ncccc5c4)c3n2)cn1 [PF04217903] (first compound 10 µM, partner dose 5 µM)",75.9%
14,"Nc1cccc2c1CN(C1CCC(=O)NC1=O)C2=O (stereo not drawn) [lenalidomide] + COc1ccc2c(c1)CCC1C2CCC2(C)C(NCCCCCCN3C(=O)C=CC3=O)CCC12 [U73122] (first compound 5 µM, partner dose 2 µM)",90.4%
15,"Cn1c(Nc2ccc(C(F)(F)F)cc2)nc2cc(Oc3ccnc(-c4ncc(C(F)(F)F)[nH]4)c3)ccc21 + COc1cc(N2CCC(N3CCN(C)CC3)CC2)ccc1Nc1ncc(Cl)c(Nc2ccccc2S(=O)(=O)C(C)C)n1 [NVP-TAE684] (first compound 0.4 µM, partner dose 0.4 µM)",44.9%
16,"C#Cc1cccc(Nc2ncnc3cc(OCCOC)c(OCCOC)cc23)c1 [erlotinib] + COc1cc2ncnc(Nc3ccc(Oc4ccccc4)cc3)c2cc1OC [SrcI1] (first compound 4 µM, partner dose 10 µM)",54.2%
17,"C#Cc1cccc(Nc2ncnc3cc(OCCOC)c(OCCOC)cc23)c1 [erlotinib] + Cc1cc([N+](=O)[O-])ccc1NS(=O)(=O)c1cc(Cl)ccc1Cl [FH535] (first compound 4 µM, partner dose 5 µM)",64.2%
18,"OCc1c[nH]c2ccccc12 [Indole-3-carbinol] + C#Cc1cccc(Nc2ncnc3cc(OCCOC)c(OCCOC)cc23)c1 [erlotinib] (first compound 4 µM, partner dose 4 µM)",70.8%
19,"Clc1ccc(Nc2nnc(Cc3ccncc3)c3ccccc23)cc1 [vatalanib] + O=C(O)c1ccc(-c2c[nH]c3ncc(-c4ccccc4)cc23)cc1C1CCCC1 [GSK650394] (first compound 10 µM, partner dose 0.8 µM)",51.4%
20,"Cn1c(Nc2ccc(C(F)(F)F)cc2)nc2cc(Oc3ccnc(-c4ncc(C(F)(F)F)[nH]4)c3)ccc21 + CO[C@@H]1[C@H](N(C)C(=O)c2ccccc2)C[C@H]2O[C@]1(C)n1c3ccccc3c3c4c(c5c6ccccc6n2c5c31)C(=O)NC4 [Midostaurin] (first compound 0.4 µM, partner dose 0.4 µM)",55.5%
21,"Clc1ccc(Nc2nnc(Cc3ccncc3)c3ccccc23)cc1 [vatalanib] + COCC[n+]1c2c(n(Cc3cnccn3)c1C)C(=O)c1ccccc1C2=O [YM155] (first compound 10 µM, partner dose 0.002 µM)",70.5%
22,"Cn1c(Nc2ccc(C(F)(F)F)cc2)nc2cc(Oc3ccnc(-c4ncc(C(F)(F)F)[nH]4)c3)ccc21 + O=C(O)C(=O)Nc1sc2c(c1C(=O)O)CCNC2 [TCS401] (first compound 0.4 µM, partner dose 8.33333 µM)",62.2%
23,"O=C(CCCCCCC(=O)Nc1ccccc1)NO [vorinostat] + COc1cc(Nc2ncc(F)c(Nc3ccc4c(n3)NC(=O)C(C)(C)O4)n2)cc(OC)c1OC [Tamatinib] (first compound 0.4 µM, partner dose 2 µM)",68.9%
24,"O=C(CCCCCCC(=O)Nc1ccccc1)NO [vorinostat] + N#Cc1c(O)c2c(-c3ccc(-c4ccccc4O)cc3)csc2[nH]c1=O [A769662] (first compound 0.4 µM, partner dose 10 µM)",99.5%
